T1: RBFOX1 RRM (Homo sapiens, UniProt Q9NWB1 109-208)
T1 sequence: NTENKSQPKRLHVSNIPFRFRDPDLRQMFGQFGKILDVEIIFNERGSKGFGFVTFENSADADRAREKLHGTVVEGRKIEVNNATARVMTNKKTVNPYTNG

B1: UGUCCUU (DNA:RNA)
RNA: GGGAGACCGGAAUUCAGAUUGUCCUGUCCUUUUAAAUCCCGUCGUAGCCACCA
DNA 1: CAATCTGAATTCCGGTCTCCC
DNA 2: TGGTGGCTACGACGGGATT
B2: UACCCAA (DNA:RNA)
RNA: B1 RNA with G26A, U27C, U30A, U31A
DNA 1: CAATCTGAATTCCGGTCTCCC
DNA 2: TGGTGGCTACGACGGGATT
B3: UGUUACA (DNA:RNA)
RNA: B1 RNA with C28U, C29A, U30C, U31A
DNA 1: CAATCTGAATTCCGGTCTCCC
DNA 2: TGGTGGCTACGACGGGATT
B4: UAUGGUC (DNA:RNA)
RNA: B1 RNA with G26A, C28G, C29G, U31C
DNA 1: CAATCTGAATTCCGGTCTCCC
DNA 2: TGGTGGCTACGACGGGATT
B5: ACUGAAA (DNA:RNA)
RNA: B1 RNA with U25A, G26C, C28G, C29A, U30A, U31A
DNA 1: CAATCTGAATTCCGGTCTCCC
DNA 2: TGGTGGCTACGACGGGATT
B6: CACAGCC (DNA:RNA)
RNA: GGGAGACCGGAAUUCAGAUUGUCCCACAGCCUUAAAUCCCGUCGUAGCCACCA
DNA 1: CAATCTGAATTCCGGTCTCCC
DNA 2: TGGTGGCTACGACGGGATT
B7: GUCGCUC (DNA:RNA)
RNA: B6 RNA with C25G, A26U, A28G, G29C, C30U
DNA 1: CAATCTGAATTCCGGTCTCCC
DNA 2: TGGTGGCTACGACGGGATT
B8: CCGAUCG (DNA:RNA)
RNA: B6 RNA with A26C, C27G, G29U, C31G
DNA 1: CAATCTGAATTCCGGTCTCCC
DNA 2: TGGTGGCTACGACGGGATT
B9: CAGACCC (DNA:RNA)
RNA: B6 RNA with C27G, G29C
DNA 1: CAATCTGAATTCCGGTCTCCC
DNA 2: TGGTGGCTACGACGGGATT
B10: UGUUGAC (DNA:RNA)
RNA: B1 RNA with C28U, C29G, U30A, U31C
DNA 1: CAATCTGAATTCCGGTCTCCC
DNA 2: TGGTGGCTACGACGGGATT
B11: GAGAUCC (DNA:RNA)
RNA: B6 RNA with C25G, C27G, G29U
DNA 1: CAATCTGAATTCCGGTCTCCC
DNA 2: TGGTGGCTACGACGGGATT
B12: AUAUGAG (DNA:RNA)
RNA: B6 RNA with C25A, A26U, C27A, A28U, C30A, C31G
DNA 1: CAATCTGAATTCCGGTCTCCC
DNA 2: TGGTGGCTACGACGGGATT
B13: AACAACG (DNA:RNA)
RNA: B6 RNA with C25A, G29A, C31G
DNA 1: CAATCTGAATTCCGGTCTCCC
DNA 2: TGGTGGCTACGACGGGATT
B14: AAGGCAC (DNA:RNA)
RNA: B6 RNA with C25A, C27G, A28G, G29C, C30A
DNA 1: CAATCTGAATTCCGGTCTCCC
DNA 2: TGGTGGCTACGACGGGATT
B15: AACCUAC (DNA:RNA)
RNA: B6 RNA with C25A, A28C, G29U, C30A
DNA 1: CAATCTGAATTCCGGTCTCCC
DNA 2: TGGTGGCTACGACGGGATT
B16: ACGGUGA (DNA:RNA)
RNA: GGGAGACCGGAAUUCAGAUUGUCCACGGUGAUUAAAUCCCGUCGUAGCCACCA
DNA 1: CAATCTGAATTCCGGTCTCCC
DNA 2: TGGTGGCTACGACGGGATT
B17: GGGUCAA (DNA:RNA)
RNA: B16 RNA with A25G, C26G, G28U, U29C, G30A
DNA 1: CAATCTGAATTCCGGTCTCCC
DNA 2: TGGTGGCTACGACGGGATT
B18: AUAAGAC (DNA:RNA)
RNA: B6 RNA with C25A, A26U, C27A, C30A
DNA 1: CAATCTGAATTCCGGTCTCCC
DNA 2: TGGTGGCTACGACGGGATT
B19: CGUAACC (DNA:RNA)
RNA: B6 RNA with A26G, C27U, G29A
DNA 1: CAATCTGAATTCCGGTCTCCC
DNA 2: TGGTGGCTACGACGGGATT
B20: GCCAGCA (DNA:RNA)
RNA: B6 RNA with C25G, A26C, C31A
DNA 1: CAATCTGAATTCCGGTCTCCC
DNA 2: TGGTGGCTACGACGGGATT
B21: AGUAACG (DNA:RNA)
RNA: B6 RNA with C25A, A26G, C27U, G29A, C31G
DNA 1: CAATCTGAATTCCGGTCTCCC
DNA 2: TGGTGGCTACGACGGGATT
B22: CGGAACA (DNA:RNA)
RNA: B6 RNA with A26G, C27G, G29A, C31A
DNA 1: CAATCTGAATTCCGGTCTCCC
DNA 2: TGGTGGCTACGACGGGATT
B23: UCAACAA (DNA:RNA)
RNA: B16 RNA with A25U, G27A, G28A, U29C, G30A
DNA 1: CAATCTGAATTCCGGTCTCCC
DNA 2: TGGTGGCTACGACGGGATT
B24: UUCCAAU (DNA:RNA)
RNA: B1 RNA with G26U, U27C, C29A, U30A
DNA 1: CAATCTGAATTCCGGTCTCCC
DNA 2: TGGTGGCTACGACGGGATT
B25: GGGCAAG (DNA:RNA)
RNA: B1 RNA with U25G, U27G, C29A, U30A, U31G
DNA 1: CAATCTGAATTCCGGTCTCCC
DNA 2: TGGTGGCTACGACGGGATT
B26: UCUAUAA (DNA:RNA)
RNA: B16 RNA with A25U, G27U, G28A, G30A
DNA 1: CAATCTGAATTCCGGTCTCCC
DNA 2: TGGTGGCTACGACGGGATT
B27: AAAGGGA (DNA:RNA)
RNA: B16 RNA with C26A, G27A, U29G
DNA 1: CAATCTGAATTCCGGTCTCCC
DNA 2: TGGTGGCTACGACGGGATT
B28: AUUGUUA (DNA:RNA)
RNA: B16 RNA with C26U, G27U, G30U
DNA 1: CAATCTGAATTCCGGTCTCCC
DNA 2: TGGTGGCTACGACGGGATT
B29: GAUGGGC (DNA:RNA)
RNA: B6 RNA with C25G, C27U, A28G, C30G
DNA 1: CAATCTGAATTCCGGTCTCCC
DNA 2: TGGTGGCTACGACGGGATT
B30: UGUAGAG (DNA:RNA)
RNA: B1 RNA with C28A, C29G, U30A, U31G
DNA 1: CAATCTGAATTCCGGTCTCCC
DNA 2: TGGTGGCTACGACGGGATT
B31: GAGGACU (DNA:RNA)
RNA: B16 RNA with A25G, C26A, U29A, G30C, A31U
DNA 1: CAATCTGAATTCCGGTCTCCC
DNA 2: TGGTGGCTACGACGGGATT

Where a chain is given by its changes, count along the chain named. The list shows a part of the results.

This assay concerns the target T1, RBFOX1 RRM. Kind of assay: EMSA; HiTS-Eq, 1 nM pool, 10 min; buffer printed only for the single-RNA assays: 10 mM Tris pH 7.5, 150 mM NaCl, 3.4 mM EDTA, 0.001% NP-40, 30 C. To be noted: tags: His6 N-terminal (pET28a); label: 5' 32P. The essentials: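 These values rest on relative association constants, computed from read-count changes of each RNA species versus the control reaction and normalised to the cognate motif. Reads came from free RNA recovered by 8% native PAGE after purified RbFox RRM (wild type or mutant) at increasing concentrations was equilibrated for 10 min in 50 µL with 1 nM of a 5′-radiolabelled pool with 7 randomized nucleotides and DNA-annealed flanks.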
For orientation: A gel shift assay detects complexes by their altered migration in electrophoresis.
Consider B1, for which the binding signal was 0.0132 KA relative to UGCAUGU. Take B2: the binding signal is 0.0006 KA relative to UGCAUGU. In the case of B3, the binding signal is 0.0129 KA relative to UGCAUGU. Regarding B4, the binding signal was 0.0175 KA relative to UGCAUGU. Turning to B5, the binding signal was 0.00547 KA relative to UGCAUGU.

Regarding B6, the binding signal is 0.00207 KA relative to UGCAUGU. For B7, the binding signal was 0.0171 KA relative to UGCAUGU. Regarding B8, the binding signal is 0.012 KA relative to UGCAUGU. Regarding B9, the binding signal is 0.00122 KA relative to UGCAUGU. Consider B10, for which the binding signal was 0.0252 KA relative to UGCAUGU. With B11, the binding signal was 0.0136 KA relative to UGCAUGU. As to B12, the binding signal is 0.00912 KA relative to UGCAUGU. Consider B13, for which the binding signal is 0.00453 KA relative to UGCAUGU. As for B14, the binding signal is 0.0111 KA relative to UGCAUGU. As for B15, the binding signal is 0.00216 KA relative to UGCAUGU. B16: the binding signal is 0.0117 KA relative to UGCAUGU. Next, B17: 0.00562 KA relative to UGCAUGU; B18: 0.00331 KA relative to UGCAUGU; B19: 0.003 KA relative to UGCAUGU. In the case of B20, the binding signal is 0.0138 KA relative to UGCAUGU.

Consider B21, for which the binding signal is 0.00714 KA relative to UGCAUGU. For B22, the binding signal is 0.019 KA relative to UGCAUGU. Take B23: the binding signal is 0.000161 KA relative to UGCAUGU. In the case of B24, the binding signal is 0.00158 KA relative to UGCAUGU. Turning to B25, the binding signal was 0.0135 KA relative to UGCAUGU. On to B26, for which the binding signal was 0.00121 KA relative to UGCAUGU. For the molecule B27, the binding signal was 0.00483 KA relative to UGCAUGU. As to B28, the binding signal is 0.0062 KA relative to UGCAUGU. Take B29: the binding signal was 0.0134 KA relative to UGCAUGU.

On to B30, for which the binding signal was 0.0221 KA relative to UGCAUGU.

Consider B31, for which the binding signal is 0.0055 KA relative to UGCAUGU.

For the origin of these results see PMC9911399, “Two distinct binding modes provide the RNA-binding protein RbFox with extraordinary sequence specificity”.
